Screen size: about 220,000 compounds; about 16,000 (7.3%) were called active. Inconclusive means that the source gave no clear call. Such entries were picked first, then a sample of the others. Calls follow the shape of the dose curve; as a rule, active = well fitted inhibition curve with a large enough effect (not every such curve was filed as active); inconclusive = small, poorly fitted or top-dose-only effect, or another doubt; inactive = no such curve, though single readings can be large or run the other way. A potency beside an inconclusive call is a rough fit, not a confirmed value.
biological target: Aldehyde dehydrogenase 1A1 (Homo sapiens) (UniProt P00352); experiment: qHTS Assay for Inhibitors of Aldehyde Dehydrogenase 1 (ALDH1A1); settings: Purified ALDH1A1, NADH fluorescence, propionaldehyde substrate; series mostly up to 75.3 µM; activity, negative = inhibition: at the top concentration;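 as to activity, negative = inhibition: plate controls were no enzyme wells and a reference inhibitor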
Potency is read from the fitted curve at half-maximal effect; tags tell the direction and shape of the fitted curve.

Chain of UniProt P00352 (P00352 whole entry, looked up): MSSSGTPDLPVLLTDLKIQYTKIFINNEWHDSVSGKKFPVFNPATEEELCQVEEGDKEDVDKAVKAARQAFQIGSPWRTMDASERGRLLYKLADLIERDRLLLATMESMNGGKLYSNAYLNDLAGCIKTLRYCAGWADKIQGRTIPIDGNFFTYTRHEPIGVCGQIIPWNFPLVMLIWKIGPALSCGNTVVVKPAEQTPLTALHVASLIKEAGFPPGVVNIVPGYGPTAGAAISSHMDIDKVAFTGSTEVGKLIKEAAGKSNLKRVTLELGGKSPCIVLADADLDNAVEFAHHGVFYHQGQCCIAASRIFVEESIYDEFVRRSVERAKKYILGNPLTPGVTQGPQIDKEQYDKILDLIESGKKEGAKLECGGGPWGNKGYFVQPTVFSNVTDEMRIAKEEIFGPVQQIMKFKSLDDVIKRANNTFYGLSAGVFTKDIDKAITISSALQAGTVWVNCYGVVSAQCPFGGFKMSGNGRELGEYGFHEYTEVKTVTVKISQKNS

Potency, active:
O=C(CSc1nc2c(cnn2-c2ccc(F)cc2)c(=O)[nH]1)N1CCCCCC1 0.126 µM, CC(=O)Nc1cccc(NC(=O)c2sc3ncn(CC(=O)N4CCCCC4)c(=O)c3c2C)c1 0.891 µM

Potency, inconclusive:
CC(C)(C)C(=O)c1cn(CC(=O)O)c2ccccc12 23.8 µM [inhibitor, partial curve, poor fit], COc1ccc(/C=N/Nc2nc(=O)[nH]nc2C)cc1[N+](=O)[O-] 2.82 µM [inhibitor, partial curve], CC(=O)CSc1nc2ccc(Nc3nc(N4CCOCC4)nc(N4CCOCC4)n3)cc2s1 35.5 µM [inhibitor, single point], CNc1nc(OC)nc(N(C#N)CN2C(=O)c3ccccc3S2(=O)=O)n1 31.6 µM [inhibitor, partial curve], Cc1ccc(C(=O)N/C(=C\c2cccnc2)c2nc3ccccc3[nH]2)cc1 39.8 µM [inhibitor, single point], Cc1ccc(S(=O)(=O)N(C)C)cc1NS(=O)(=O)c1ccc(Cl)s1 20 µM [inhibitor, partial curve], CCc1ccc2[nH]c(=O)c(CN(CCCN3CCOCC3)C(=O)Nc3cccc(Cl)c3)cc2c1 39.8 µM [inhibitor, single point], CCc1nc(OCc2ccco2)c2sc3nc4c(cc3c2n1)COC(C)(C)C4 1.26 µM [inhibitor, partial curve], CC1=NN(c2ccc(C)c(C)c2)C(=O)/C1=C/c1ccc2c(c1)n(C)c(=O)n2C 0.794 µM [inhibitor, full curve], C=CCn1c(=O)c2ccccc2n2c(SCC(=O)Nc3sc(C)c(CC)c3C(=O)OCC)nnc12 44.7 µM [inhibitor, single point], O/N=C1/CCCCC1c1ccccn1 (stereo not given) 44.7 µM [inhibitor, single point]

activity, negative = inhibition, inactive:
O=c1c2cc(Br)ccc2nc(-c2cccc(C(F)(F)F)c2)n1O 17%, C[C@@H](C(=O)Nc1ccc2ccccc2c1)[C@@H]1C[C@@]1(C)[C@@H](NC(=O)c1ccncc1Cl)c1ccccc1 -0.49%, CN(C)C(CNC(=O)C1CCCN(C(=O)c2ccc(Cl)cc2)C1)c1ccco1 (stereo not given) 2.88%, Cc1cccc(OCc2nnc(N)s2)c1C -0.486%, CC(CCC#N)[N+](=O)[O-] (stereo not given) 2.21%, CCC(C)Oc1ccccc1C1CC(=O)NC2=C1C(=O)CCC2 (stereo not given) -3.43%, O=C(NCC1CCCO1)c1onc(CSc2ccccc2)c1C(=O)O (stereo not given) -4.68%

Source: PubChem BioAssay AID1030 (National Center for Advancing Translational Sciences (NCATS), 2008)
